# Source: the supplement of paper PMC8728848
# Some of the results follow.
# Legend:
# Test in all cases: glycan array binding signal (z-score within array); higher = stronger binding
# Settings in all cases: glycan notation: IUPAC condensed, linker removed
# [1] = molecular target: Fuc(a1-2)[GalNAc(a1-3)]Gal(b1-3)GalNAc(b1-3)Gal(a1-4)Gal(b1-4)Glc
# Procedure, shortened: (§1)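 Columns mapping to the same glycan were averaged after glycan names were converted to IUPAC-condensed notation. The data come from 3228 arrays in the Consortium for Functional Glycomics database, limited to those with an available protein sequence. Binding is reported as a within-array Z-score averaged across arrays of one protein sequence and across linkers.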
# [2] = molecular target: Fuc(a1-2)[GalNAc(a1-3)]Gal(b1-3)GlcNAc
# Procedure, shortened: as §1
# [3] = molecular target: Fuc(a1-2)[GalNAc(a1-3)]Gal(b1-3)GlcNAc(b1-2)Man(a1-3)[Fuc(a1-2)[GalNAc(a1-3)]Gal(b1-3)GlcNAc(b1-2)Man(a1-6)]Man(b1-4)GlcNAc(b1-4)GlcNAc
# Procedure, shortened: as §1
# [4] = molecular target: Fuc(a1-2)[GalNAc(a1-3)]Gal(b1-3)GlcNAc(b1-2)Man(a1-3)[Fuc(a1-2)[GalNAc(a1-3)]Gal(b1-3)GlcNAc(b1-2)Man(a1-6)]Man(b1-4)GlcNAc(b1-4)[Fuc(a1-6)]GlcNAc
# Procedure, shortened: as §1
# [5] = molecular target: Fuc(a1-2)[GalNAc(a1-3)]Gal(b1-3)GlcNAc(b1-3)GalNAc
# Procedure, shortened: as §1
# [6] = molecular target: Fuc(a1-2)[GalNAc(a1-3)]Gal(b1-3)GlcNAc(b1-6)GalNAc
# Procedure, shortened: as §1
# [7] = molecular target: Fuc(a1-2)[GalNAc(a1-3)]Gal(b1-4)Glc
# Procedure, shortened: as §1
# [8] = molecular target: Fuc(a1-2)[GalNAc(a1-3)]Gal(b1-4)GlcNAc
# Procedure, shortened: as §1
# [9] = molecular target: Fuc(a1-2)[GalNAc(a1-3)]Gal(b1-4)GlcNAc(b1-2)Man
# Procedure, shortened: as §1
# [10] = molecular target: Fuc(a1-2)[GalNAc(a1-3)]Gal(b1-4)GlcNAc(b1-2)Man(a1-3)[Fuc(a1-2)[GalNAc(a1-3)]Gal(b1-4)GlcNAc(b1-2)Man(a1-6)]Man(b1-4)GlcNAc(b1-4)GlcNAc
# Procedure, shortened: as §1
# [11] = molecular target: Fuc(a1-2)[GalNAc(a1-3)]Gal(b1-4)GlcNAc(b1-2)Man(a1-3)[Fuc(a1-2)[GalNAc(a1-3)]Gal(b1-4)GlcNAc(b1-2)Man(a1-6)]Man(b1-4)GlcNAc(b1-4)[Fuc(a1-6)]GlcNAc
# Procedure, shortened: as §1
# [12] = molecular target: Fuc(a1-2)[GalNAc(a1-3)]Gal(b1-4)GlcNAc(b1-2)Man(a1-3)[GalNAc(a1-3)[Fuc(a1-2)]Gal(b1-4)GlcNAc(b1-2)Man(a1-6)]Man(b1-4)GlcNAc(b1-4)GlcNAc
# Procedure, shortened: as §1
# [13] = molecular target: Fuc(a1-2)[GalNAc(a1-3)]Gal(b1-4)GlcNAc(b1-3)Gal(b1-4)GlcNAc
# Procedure, shortened: as §1
# [14] = molecular target: Fuc(a1-2)[GalNAc(a1-3)]Gal(b1-4)GlcNAc(b1-3)Gal(b1-4)GlcNAc(b1-3)Gal(b1-4)GlcNAc
# Procedure, shortened: as §1
# [15] = molecular target: Fuc(a1-2)[GalNAc(a1-3)]Gal(b1-4)GlcNAc(b1-3)GalNAc
# Procedure, shortened: as §1
# [16] = molecular target: Fuc(a1-2)[GalNAc(a1-3)]Gal(b1-4)GlcNAc(b1-3)[Fuc(a1-2)[GalNAc(a1-3)]Gal(b1-4)GlcNAc(b1-6)]GalNAc
# Procedure, shortened: as §1
# [17] = molecular target: Fuc(a1-2)[GalNAc(a1-3)]Gal(b1-4)GlcNAc(b1-6)GalNAc
# Procedure, shortened: as §1
# [18] = molecular target: Fuc(a1-2)[GalNAc(a1-3)]Gal(b1-4)[Fuc(a1-3)]GlcNAc
# Procedure, shortened: as §1
# [19] = molecular target: Fuc(a1-2)[GalNAc(a1-3)]Gal(b1-4)[Fuc(a1-3)]GlcNAc(b1-3)GalNAc
# Procedure, shortened: as §1
# [20] = molecular target: Fuc(a1-2)[GalNAc(a1-4)]Gal(b1-4)GlcNAc
# Procedure, shortened: as §1
# [21] = molecular target: Fuc(a1-2)[GalNAc(b1-3)]Gal
# Procedure, shortened: as §1
# [22] = molecular target: Fuc(a1-3)GlcNAc
# Procedure, shortened: as §1
# [23] = molecular target: Fuc(a1-3)[Gal(b1-4)]Glc6S
# Procedure, shortened: as §1
# [24] = molecular target: Fuc(a1-3)[Gal(b1-4)]GlcNAc
# Procedure, shortened: as §1
# [25] = molecular target: Fuc(a1-3)[Gal(b1-4)]GlcNAc(b1-2)Man
# Procedure, shortened: as §1
# [26] = molecular target: Fuc(a1-3)[Gal(b1-4)]GlcNAc(b1-2)Man(a1-3)[Fuc(a1-3)[Gal(b1-4)]GlcNAc(b1-2)Man(a1-6)]Man(b1-4)GlcNAc(b1-4)GlcNAc
# Procedure, shortened: as §1
# [27] = molecular target: Fuc(a1-3)[Gal(b1-4)]GlcNAc(b1-2)Man(a1-3)[Fuc(a1-3)[Gal(b1-4)]GlcNAc(b1-2)Man(a1-6)]Man(b1-4)GlcNAc(b1-4)[Fuc(a1-6)]GlcNAc
# Procedure, shortened: as §1
# [28] = molecular target: Fuc(a1-3)[Gal(b1-4)]GlcNAc(b1-2)Man(a1-6)[Gal(b1-4)GlcNAc(b1-2)Man(a1-3)]Man(b1-4)GlcNAc(b1-4)GlcNAc
# Procedure, shortened: as §1
# [29] = molecular target: Fuc(a1-3)[Gal(b1-4)]GlcNAc(b1-3)Gal(b1-3)[Fuc(a1-4)]GlcNAc
# Procedure, shortened: as §1
# [30] = molecular target: Fuc(a1-3)[Gal(b1-4)]GlcNAc(b1-3)Gal(b1-4)[Fuc(a1-3)]GlcNAc
# Procedure, shortened: as §1
# [31] = molecular target: Fuc(a1-3)[Gal(b1-4)]GlcNAc(b1-3)Gal(b1-4)[Fuc(a1-3)]GlcNAc(b1-3)Gal(b1-4)[Fuc(a1-3)]GlcNAc
# Procedure, shortened: as §1
# [32] = molecular target: Fuc(a1-3)[Gal(b1-4)]GlcNAc(b1-3)GalNAc
# Procedure, shortened: as §1
# [33] = molecular target: Fuc(a1-3)[Gal(b1-4)]GlcNAc(b1-4)Gal(b1-4)[Fuc(a1-3)]GlcNAc
# Procedure, shortened: as §1
# [34] = molecular target: Fuc(a1-3)[Gal(b1-4)]GlcNAc(b1-4)Gal(b1-4)[Fuc(a1-3)]GlcNAc(b1-4)Gal(b1-4)[Fuc(a1-3)]GlcNAc
# Procedure, shortened: as §1
# [35] = molecular target: Fuc(a1-3)[Gal(b1-4)]GlcNAc(b1-6)GalNAc
# Procedure, shortened: as §1
# [36] = molecular target: Fuc(a1-3)[Gal(b1-4)]GlcNAc(b1-6)[Gal(b1-3)GlcNAc(b1-3)]Gal(b1-4)Glc
# Procedure, shortened: as §1
# [37] = molecular target: Fuc(a1-3)[Gal(b1-4)]GlcNAc6S
# Procedure, shortened: as §1
binder,measurement,setting,value
MGL6A (Homo sapiens) (protein) MTRTYENFQYLENKVKVQGFKNGPLPLQSLLQRLCSGPCHLLLSLGLGLLLLVIICVVGFQNSKFQRDLVTLRTDFSNFTSNTVAEIQALTSQGSSLEETIASLKAEVEGFKQERQAVHSEMLLRVQQLVQDLKKLTCQVATLNNNGEEASTEGTCCPVNWVEHQDSCYWFSHSGMSWAEAEKYCQLKNAHLVVINSREEQNFVQKYLGSAYTWMGLSDPEGAWKWVDGTDYATGFQNWKPGQPDDWQGHGLGGGEDCAHFHPDGRWNDDVCQRPYHWVCEAGLGQTSQESH,glycan array binding signal (z-score),[1],-0.19
same,glycan array binding signal (z-score),[2],-0.075
same,glycan array binding signal (z-score),[3],-0.173
same,glycan array binding signal (z-score),[4],0.061
same,glycan array binding signal (z-score),[5],-0.234
same,glycan array binding signal (z-score),[6],3.63
same,glycan array binding signal (z-score),[7],0.534
same,glycan array binding signal (z-score),[8],0.463
same,glycan array binding signal (z-score),[9],-0.017
same,glycan array binding signal (z-score),[10],1.29
same,glycan array binding signal (z-score),[11],-0.299
same,glycan array binding signal (z-score),[12],-0.284
same,glycan array binding signal (z-score),[13],-0.074
same,glycan array binding signal (z-score),[14],-0.038
same,glycan array binding signal (z-score),[15],-0.234
same,glycan array binding signal (z-score),[16],-0.081
same,glycan array binding signal (z-score),[17],3.79
same,glycan array binding signal (z-score),[18],-0.22
same,glycan array binding signal (z-score),[19],-0.232
same,glycan array binding signal (z-score),[20],4.68
same,glycan array binding signal (z-score),[21],4.73
same,glycan array binding signal (z-score),[22],-0.244
same,glycan array binding signal (z-score),[23],-0.234
same,glycan array binding signal (z-score),[24],-0.273
same,glycan array binding signal (z-score),[25],-0.284
same,glycan array binding signal (z-score),[26],-0.36
same,glycan array binding signal (z-score),[27],-0.26
same,glycan array binding signal (z-score),[28],1.06
same,glycan array binding signal (z-score),[29],-0.288
same,glycan array binding signal (z-score),[30],-0.249
same,glycan array binding signal (z-score),[31],-0.267
same,glycan array binding signal (z-score),[32],-0.265
same,glycan array binding signal (z-score),[33],-0.371
same,glycan array binding signal (z-score),[34],-0.024
same,glycan array binding signal (z-score),[35],0.377
same,glycan array binding signal (z-score),[36],-0.265
same,glycan array binding signal (z-score),[37],-0.278
